# According to PubChem BioAssay AID1347073 (National Center for Advancing Translational Sciences (NCATS), 2019):
# The campaign covered roughly 45,000 compounds. About 200 (0.44%) were called active. Another 7% or so got no clear call; they are omitted. Calls follow the shape of the dose curve; as a rule, active = well fitted activation curve with a large enough effect; inconclusive = small, poorly fitted or top-dose-only effect; inactive = no such curve, though single readings can be large or run the other way. The list shows a part of the results.
# Assay: qHTS of TDP-43 Inhibitors: NCGC Sytravon Library Screen; also: 0% is about no effect; nearly all actives have a fitted effect of over 55% in size
# Details: yeast TDP-43 toxicity rescue, BacTiter-Glo growth, 24 h; series mostly up to 46.1 µM; growth rescue (activation): at the top concentration
# In short: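 TDP-43-expressing yeast, pregrown in raffinose, seeded at OD600 0.02 in galactose medium with compound for 24 hr at 30 deg C. Growth read by BacTiter-Glo luminescence, so rescue of toxicity appears as activation.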
row,Structure (SMILES),growth rescue (activation)
1,OC(c1ccc(F)c(F)c1)c1nc(-c2ccncc2)cs1 (centres undefined),inactive: 11%
2,COC(=O)Cc1csc(Nc2ccc(Cl)cc2)n1,inactive: -11.9%
3,COc1cccc(N(CC(=O)NCCSCc2ccco2)S(=O)(=O)c2ccccc2)c1,inactive: -18%
4,COc1ccc(C(=O)NC(=S)Nc2nc(C)cc(C)n2)cc1Br,inactive: 6.48%
5,COc1ccc(NC(=O)C2CC(c3ccc(Cl)cc3)=NO2)cc1 (centres undefined),inactive: -3.83%
6,O=C(CCc1nnc(CCCCc2ccccc2)o1)NCCN1CCCCC1=O,inactive: 8.95%
7,Cc1cccn2c(=O)c(/C=C(\C#N)C(=O)NC3CCS(=O)(=O)C3)c(Oc3ccc(F)cc3)nc12 (centres undefined),inactive: -0.677%
8,COc1cc(NC(=O)CN2CCN(c3ccccc3)CC2)c(C)cc1[N+](=O)[O-],inactive: 17.1%
9,CC(C)CCn1nc(C(=O)Nc2nc3c(s2)CCCC3)c2ccccc2c1=O,inactive: -5.75%
10,Cc1cccc(C)c1OCc1cc(C(=O)N2CCN(C3CCCC3)CC2)no1,inactive: 10.9%
11,O=S(=O)(Nc1cc(S(=O)(=O)N2CCOCC2)ccc1N1CCCC1)c1cccs1,inactive: 8.46%
12,Nc1nc(Nc2cccc(Cl)c2)nc(NCCO)c1[N+](=O)[O-],inactive: -10.9%
13,COc1ccc(C2=NN(C(=O)CSc3nnc(-c4ccccc4F)o3)C(c3ccco3)C2)cc1 (centres undefined),inactive: 17.8%
14,CN(C)c1nc(Nn2cnnc2)nc(N(C)C)n1,inactive: 27.7%
15,O=C(NCC(=O)N(c1cccnc1)C(C(=O)NC1CCCC1)c1cccs1)c1ccco1 (centres undefined),inactive: 5.04%
16,CCc1nc2ccc(C(=O)NCCOc3ccc(OC)cc3)cn2c1N(C)C(=O)C1CCCCC1,inactive: 10.7%
17,CC(=O)c1ccc(N(CC(=O)NCc2ccc3c(c2)OCO3)C(=O)c2csnn2)cc1,inactive: -13.3%
18,COc1cc2c(cc1NC(=O)CN1CCN(S(=O)(=O)c3ccc(C)cc3)CC1)oc1ccccc12,inactive: 19.2%
19,CSc1ncc(C(=O)Nc2ccc(Cl)cc2)c(C)n1,inactive: 13.2%
20,Cc1ccc2nsnc2c1NC(=O)Cc1ccc(Cl)cc1,inactive: 13.6%
21,Cc1ccc(-c2nc3c(c(=O)c4ccccc4n3C)c(=O)n2-c2ccc(F)cc2)cc1,inactive: -9.21%
22,Cc1ccc(/C=N/Nc2nc(N3CCOCC3)nc(N3CCOCC3)n2)o1,inactive: 0.0022%
23,COc1ccccc1NC(=O)CCS(=O)(=O)c1ccccc1,inactive: -0.687%
24,Cc1csc(N(C(=O)c2cccc(S(=O)(=O)N3CCCC3)c2)c2ccccc2)n1,inactive: -0.354%
25,O=S(=O)(NCC1COc2ccccc2O1)c1ccc2ccccc2c1 (centres undefined),inactive: 13.6%
26,CCCCCn1c(=S)[nH]c2ncccc2c1=O,inactive: 24.2%
27,Nn1c(SCC(=O)NC2CCCCCC2)nnc1C(F)(F)F,inactive: 10.9%
28,Cn1nc([N+](=O)[O-])nc1Sc1nnnn1-c1ccc(C(=O)O)cc1,inactive: -6.8%
29,CC(=O)Oc1ccc(-c2csc(Nc3ccc(S(N)(=O)=O)cc3)n2)cc1,inactive: 10.8%
